Measured values as given in the supplement of paper PMC10126150.
Values marked as one replicate rest on one cluster of the flow cell; about a third of the high ones do not repeat.

Tested on: ATP
Assay: switch fluorescence ratio, 500 uM ATP over buffer (Cy3 cluster intensity, sum of 5 cycles each) (fold (ratio)); higher = stronger signal-on switching upon ATP binding; sequences stand for … in TCGTCGGCAGCGTCAGATGTGTATAAGAGACAGTTTTTTTTTTTTTTTTTTTTTTTTT…TC
Details: aptamer strand: ATP DNA aptamer (quencher-CACCTGGGGGAGTATTGCGGAGGAAGG + anchor), 100 nM annealed; ATP concentration: 500 uM; one replicate
Procedure, shortened: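 Clusters with intensities outside 100-1000 RFU were excluded. The remaining Cy3-labelled switching-strand clusters on a modified Illumina MiSeq flow-cell had been annealed to 100 nM quencher-labelled ATP aptamer and imaged in selection buffer, then after 15 min with 500 uM ATP at 22 °C, for five cycles separated by NaOH stripping and re-annealing. The fluorescence ratio, averaged per switch-domain sequence, is each cluster's summed target-cycle Cy3 intensity over its summed buffer-cycle Cy3 intensity.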
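Note: ATP exposure 15 min at 22 °C before imaging.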

Row | Sequence | switch fluorescence ratio
1 | TTCTGACCCG | 1.05
2 | CTAAGAATGA | 0.979
3 | AGGAACCTTA | 1.15
4 | TACTTCAGCC | 1.15
5 | GTGTACATCT | 1.01
6 | GTGGCTGGTC | 1.01
7 | CAATACCGC | 1.21
8 | CGGGTCATCT | 0.998
9 | TAGATAAGAT | 0.958
10 | ATACCCACTT | 1.31
11 | ACTCTCCTGT | 1.06
12 | GGGTCCGGAT | 1.02
13 | TGCAGCGTAA | 0.991
14 | CCGAAACCGG | 0.993
15 | GTGAAACTCT | 1.03
16 | GTTCGTACTT | 0.972
17 | CGGCAGCACC | 1.48
18 | CTTACCTCAA | 1.16
19 | GGCGTGATAT | 1
20 | TTCAATTGCA | 1.04
21 | GCGTTTAAGG | 0.945
22 | ATCATACAAA | 1.03
23 | TCGTGGAGTA | 1.02
24 | TCTGGGTCTT | 0.998
25 | GCGTTGCAAG | 0.994

Row | Sequence | switch fluorescence ratio
26 | AGCGAAGGTT | 0.972
27 | ACGGTAATTA | 1.12
28 | TGACGAAAGG | 0.98
29 | AGTAGTGCG | 1
30 | GGGGGAGCCA | 1.02
31 | GAAAACAGAA | 0.991
32 | AACAGCATCC | 1.11
33 | GATTCGAGTG | 0.963
34 | TAGTTTGTAA | 1.04
35 | CCCATTAATA | 1.01
36 | CTGAGTTGTC | 1.06
37 | CAGAAGTGGT | 0.981
38 | GAGCGATGTT | 1.56
39 | CTGCCAGAAT | 1.01
40 | ATTCATTATA | 1
41 | CGAGTTACTC | 1.05
42 | CAGGATTATG | 1.04
43 | CCTGCTGTA | 1.01
44 | CGTTTAGAGA | 0.941
45 | TCAATGAACT | 1.01
46 | GGAAACTAAC | 1.03
47 | CCATGGCCAG | 0.984
48 | CATTTGACTA | 1.02
49 | CTTCGTAAGA | 1.24
50 | TATTCCCGTG | 1.03

Row | Sequence | switch fluorescence ratio
51 | TTCAAATTGC | 0.937
52 | GGAATGTAGT | 0.957
53 | GGAATATGTA | 1
54 | TCGGGCACGT | 1.01
55 | GGGTTACACA | 1.02
56 | GCTTATTTA | 1.03
57 | CCGGTTTTAC | 2.21
58 | GATGCGCAGC | 0.992
59 | CTCGATGGGT | 0.995
60 | TCTAGGATAA | 0.982
61 | ACGAGATTAG | 1.02
62 | CACCTCTGAA | 1.07
63 | CCGGGCCAGT | 1.1
64 | CTGCATGGGA | 1.02
65 | TAACGATCAA | 1.05
66 | AAGAGTGAAG | 0.98
67 | CGGCCGAACG | 0.987
68 | TCCCTGTCGG | 1
69 | GAACCTGGTA | 1.04
70 | TATAGTCCGT | 0.969
71 | CTGTGAGGTT | 1.1
72 | ACCGAAACTT | 1.09
73 | GTAGTCATTG | 1.04
74 | CTGTTCCGCG | 1.21
75 | GATCAAAAGT | 0.967

Row | Sequence | switch fluorescence ratio
76 | AGAGCACAGT | 1
77 | ACTTCGGTGT | 1.02
78 | TCACCTTCAT | 1.61
79 | ACCTGAGATC | 1.04
80 | AGGACGGATT | 0.993
81 | AGTGAGGACT | 0.982
82 | CGTGGGGTGC | 1.01
83 | CTGCTAACTT | 1.1
84 | ATCCCGCCGT | 1
85 | CAGTTCGGAT | 0.96
86 | GGTTTCTATG | 1.03
87 | TCCTCTACTA | 1.48
88 | TTGCAAAAAA | 1.05
89 | TATGTCAGTA | 0.972
90 | GCGATGGCTT | 0.986
91 | AATATGAGTT | 1.01
92 | ATCAGCTTGC | 1.04
93 | AGCGTGGCCT | 0.986
94 | AGCCAATATC | 2.58
95 | GATCGGCCCC | 1
96 | GAAAATGAG | 0.992
97 | CCTGGGCGAG | 1.11
98 | CTTGTTGTC | 1
99 | CGGGGTACGA | 1.05
100 | GAGATGCTTC | 1.2

Row | Sequence | switch fluorescence ratio
101 | AAGGTCGGGC | 0.982
102 | ATCATGCACT | 1.08
103 | GAGGCTTGT | 0.972
104 | GTACTTTATA | 1.01
105 | ATCACCGGGG | 1.04
106 | ATAGAAAGAG | 0.993
107 | GAGGGATCAT | 1.03
108 | TGTTATCGTG | 0.973
109 | TCGGCGCAAT | 2.1
110 | AACGTCTTGT | 0.986
111 | ACGATGTAGG | 0.999
112 | GCGTGAGTCT | 0.888
113 | GTAATAGGAC | 1.06
114 | AATTTCGATG | 0.988
115 | TTCGATAAAA | 0.999
116 | GAGTGCCACC | 1.01
117 | TAGCTTGGTA | 0.984
118 | AAAAGGCGAA | 1.15
119 | ATATAATTAT | 0.949
120 | AAACCAGTAA | 0.967
121 | AAGAGAAAGG | 0.966
122 | TAATACCGGA | 1.04
123 | GTGAAGCGT | 0.976
124 | GCCATCCGTG | 1.06
125 | CGCTCCTTAT | 1

Row | Sequence | switch fluorescence ratio
126 | CATTGTAGAG | 0.969
127 | ATAGACTCGC | 0.991
128 | TAGTCGGGGG | 1.02
129 | CGATCGGACA | 1.03
130 | CGTCAACAAC | 1.34
131 | TCTCCGGTGT | 1.78
132 | TCAAAGCGTG | 0.967
133 | CATAAGGAGA | 1.03
134 | GGAATATGCG | 1.01
135 | GTATTGTTAG | 0.954
136 | AACCTTAATT | 1.07
137 | TGCGAGCTTA | 1.03
138 | TTCAAGGCCA | 0.997
139 | TTCTAGCACT | 1.1
140 | TGTGGTATGA | 1.01
141 | ATCTCGGTG | 0.992
142 | TACTGTACGT | 1.52
143 | TGGGCAGAAT | 1.08
144 | CTTAGCTTGA | 1
145 | AGATCCGAAG | 1.03
146 | TTATCCTTG | 1.06
147 | GGAACCATCC | 1.84
148 | GTATCTATGG | 0.994
149 | CGGATGTAGA | 1.04
150 | GGTAACTGGG | 1.01

Row | Sequence | switch fluorescence ratio
151 | CGAAGTGGAT | 0.97
152 | CAGGAGGTG | 1.02
153 | TACGATTATC | 1.12
154 | GGAATCCAGT | 0.975
155 | GAATGCAACC | 1.3
156 | CGCGTGTGTC | 1
157 | ACTGTGTCTG | 1.02
158 | TACTCCGAGT | 1.77
159 | GATCCATTGC | 1.06
160 | ATATGGCGCC | 0.975
161 | TTTTTCACAC | 0.982
162 | AGTACCCTCG | 1.01
163 | CCACTTAGGT | 1.06
164 | CTCATCGTGT | 0.988
165 | CGTAGCGCGT | 1
166 | CTCGTCGATC | 1.44
167 | ATGAGTCAGT | 0.977
168 | CATGTTACCG | 1.03
169 | AACTTACGTA | 1.36
170 | TGCTACTATA | 1.11
171 | AAAGCCGAGT | 0.971
172 | CACGAGTATT | 1.04
173 | GCTCAGTCCT | 0.989
174 | ATCGAGGGC | 1.11
175 | CTCGCCGACC | 1.33

Row | Sequence | switch fluorescence ratio
176 | TCTATGACAT | 0.97
177 | GCGTCGGTGG | 1.06
178 | GTATCTACGT | 1.01
179 | CCAAGATGAG | 1
180 | CCATGCGTTA | 1.12
181 | ATATGATGG | 0.994
182 | TCTAATCCAC | 1.05
183 | CTGTGATGAG | 0.949
184 | GGATAAAC | 1.08
185 | TGGAGTACAG | 1
186 | GGATATCGGG | 0.946
187 | GTTAGTACTT | 1.01
188 | GCACGTTTGG | 1.09
189 | TTATGGCCG | 0.865
190 | CCTGTCCGTC | 1.04
191 | CCACGCCACG | 1.55
192 | GCAATAGGGG | 1.6
193 | TGCAACTGGT | 1.12
194 | TAACAAGCTA | 1.01
195 | CTTTTAGATT | 0.957
196 | CGGGTTCCCT | 1.03
197 | CGACCCAGAG | 1.02
198 | TTAAGTATGG | 0.943
199 | ACAGAATCGT | 1.03
200 | TTGGGTTGCA | 0.971
